Test results: paper PMC4336329 (PLoS ONE, 2015)
Among all 310,000 compounds or so, about 14,000 (4.5%) showed an effect of 50% or more. The effect is printed as a negative number. Some of the results follow.

biological target: human ether-à-go-go-related gene (hERG) potassium channel (human, UniProt Q12809); assay: primary screen, population patch clamp on CHO cells stably expressing hERG
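Further: peak tail current of the secondary pulse compared with the same well before compound.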

human ether-à-go-go-related gene (hERG) potassium channel, sequence (Q12809 whole entry, looked up): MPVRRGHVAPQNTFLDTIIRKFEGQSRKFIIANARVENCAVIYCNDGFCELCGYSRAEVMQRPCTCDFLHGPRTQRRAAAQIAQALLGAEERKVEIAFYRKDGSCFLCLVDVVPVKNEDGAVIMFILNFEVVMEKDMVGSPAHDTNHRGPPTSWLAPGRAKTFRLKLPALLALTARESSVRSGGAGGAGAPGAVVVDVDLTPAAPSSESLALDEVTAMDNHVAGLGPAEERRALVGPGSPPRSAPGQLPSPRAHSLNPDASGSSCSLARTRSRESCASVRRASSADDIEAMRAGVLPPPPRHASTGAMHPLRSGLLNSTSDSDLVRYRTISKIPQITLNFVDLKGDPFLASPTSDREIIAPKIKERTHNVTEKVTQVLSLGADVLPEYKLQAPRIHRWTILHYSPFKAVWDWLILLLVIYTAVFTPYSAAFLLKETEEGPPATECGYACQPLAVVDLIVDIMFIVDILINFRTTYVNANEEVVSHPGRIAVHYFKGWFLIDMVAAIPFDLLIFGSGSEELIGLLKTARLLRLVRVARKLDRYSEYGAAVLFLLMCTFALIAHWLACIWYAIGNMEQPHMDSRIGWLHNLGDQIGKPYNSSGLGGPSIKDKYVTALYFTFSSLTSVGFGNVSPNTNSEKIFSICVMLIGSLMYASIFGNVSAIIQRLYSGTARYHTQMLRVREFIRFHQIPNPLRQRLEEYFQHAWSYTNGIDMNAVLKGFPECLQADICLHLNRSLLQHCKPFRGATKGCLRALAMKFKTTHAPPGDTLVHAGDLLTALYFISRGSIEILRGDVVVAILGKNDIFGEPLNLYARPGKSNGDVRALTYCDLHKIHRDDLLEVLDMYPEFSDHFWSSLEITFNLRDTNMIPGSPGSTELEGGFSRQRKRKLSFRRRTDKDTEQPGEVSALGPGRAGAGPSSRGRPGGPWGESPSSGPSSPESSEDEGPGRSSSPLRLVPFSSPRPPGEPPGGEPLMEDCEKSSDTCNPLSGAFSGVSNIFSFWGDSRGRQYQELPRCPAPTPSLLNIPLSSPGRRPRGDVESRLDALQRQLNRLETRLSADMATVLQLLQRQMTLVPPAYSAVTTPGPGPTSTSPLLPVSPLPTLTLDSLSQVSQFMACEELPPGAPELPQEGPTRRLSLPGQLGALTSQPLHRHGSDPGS

SMILES	hERG current change (%, negative = inhibition) at 10uM [%]
COc1ccc(S(=O)(=O)n2cnc3cc(C)c(C)cc32)cc1	2.4
COc1ccc(Nc2cc(Nc3ccccc3)ncn2)cc1	11.5
O=C(OCCN1C(=O)c2ccccc2C1=O)c1ccco1	7.21
COc1cc(OC)cc(-c2nnc(SCC(=O)NCc3cccs3)o2)c1	0.461
Cc1ccc(C(=O)NN2C(=O)c3ccc(S(=O)(=O)c4ccc(C(=O)O)cc4)cc3C2=O)cc1	12.1
O=C(COc1ccccc1Cl)NC(=S)Nc1cccc(NC(=O)c2ccccc2Cl)c1	23
CC(C)(C)c1ccc(C(=O)NCC(=O)N2CCC3(CC2)NCCc2[nH]cnc23)cc1	18.4
CC(C)c1ccccc1NC(=S)NC1CCCCC1	-0.714
CCc1ccc(NC(=O)CN(c2ccccc2)S(=O)(=O)N(C)C)cc1	-5.75
Cc1ccc2[nH]c(=O)c(CN(Cc3ccco3)C(=O)N3CCOCC3)cc2c1	-0.449
O=C(NCCc1ccccc1F)N[C@@H](Cc1ccccc1)C(=O)O	4.11
CN(C(=O)COC(=O)COc1ccc2c(c1)CCC2)c1c(N)n(Cc2ccccc2)c(=O)[nH]c1=O	-6.4
O=C(COC(=O)Cn1cnc2ccccc21)Nc1cccc2c1C(=O)c1ccccc1C2=O	5.16
Cc1ccc(S(=O)(=O)NCCN2CCOCC2)s1	11.4
CC/C(=N\OC(=O)c1ccc(OC(C)C)cc1)c1ccc(C)cc1	16.5
CCOc1ccc(Oc2ccc(NS(=O)(=O)c3cc(C(=O)O)ccc3Cl)cc2)cc1	9.19
CCOC(=O)N1CCN(C(=O)Nc2cccc(Cl)c2)CC1	2.81
C=CCNc1nc(Nc2ccc(Cl)cc2)nc(OC)n1	-16.7
Cc1ccc(CNC(=O)Nc2ccccc2)c(C)c1	5.7
O=C(O)c1cnc(-c2ccccc2)nc1Oc1ccc(Cl)cc1	15.7
O=C1CN(C(=O)N[C@@H](Cc2ccccc2)C(=O)N[C@H](Cc2ccccc2)C(=O)O)c2ccccc2N1	22.4
Cc1cc(Cl)ccc1Oc1ncnc2oc(-c3ccccc3)cc12	-0.172
COC(=O)c1ccc(C(=O)OC)c(NC(=S)N2CCCC2)c1	-2.93
CC(=O)Nc1ccc(N=Cc2c(O)n(Cc3ccco3)c(=O)[nH]c2=O)cc1	-4.6
Cc1ccccc1OCC(=O)Nc1ccccc1N1CCC(C)CC1	18.3
CCN(CC)CCNC(=O)CNC(=O)c1nn(-c2ccc(OC)cc2OC)c(=O)c2ccccc12	-16.1
COc1ccc(CN(C(=O)c2ccc(-c3ccccc3)[nH]2)C(C(=O)NC(C)(C)C)c2ccncc2)cc1 (stereo not drawn)	1.1

SMILES	hERG current change (%, negative = inhibition) at 10uM [%]
CCn1cc(CN2CCCC(CO)(Cc3ccc(F)cc3)C2)c2ccccc21 (stereo not drawn)	-32
CCN1CCN(Cc2ccc(NC(=O)c3ccc(C)c(NC(=O)c4nccnc4N)c3)cc2C(F)(F)F)CC1	-6.3
COc1ccc(-n2c(Cc3ccccc3)nnc2SCc2ccc([N+](=O)[O-])cc2)cc1	-68.4
O=C1C(NS(=O)(=O)c2cccs2)=C(N2CCN(c3cccc(Cl)c3)CC2)C(=O)c2ccccc21	-14.2
Cn1cccc1C(=O)NNC(=O)COc1ccccc1F	17.8
COc1cc(C(=O)OCc2ccc([N+](=O)[O-])cc2)cc(OC)c1OC	2.74
Br.C#CCOC(=O)C1=CCCN(C)C1	8.29
COc1ccc(-c2ccc(SCC(=O)Nc3cc(C)on3)nn2)cc1OC	-8.61
COc1ccc(C)cc1NC(=O)n1ncc2cc(Cl)ccc21	15.9
O=C(O)c1cccc2c1C(=O)c1ccc(-c3ccc(F)cc3OCc3ccccc3)cc1S2(=O)=O	9.57
COCC(=O)Nc1ccccc1Br	5.26
COc1cc(C2C(C#N)=C(N)Oc3n[nH]c(C)c32)ccc1OC(=O)c1ccccc1 (stereo not drawn)	0.432
COCCNCCOCCOc1ccc(Cl)c(C)c1.O=C(O)C(=O)O	-21.9
COc1ccc(CCNC(=O)C2CCCN(S(=O)(=O)N3CC(C)CC(C)C3)C2)cc1OC (stereo not drawn)	8.11
COc1ccc(S(=O)(=O)N(C)C2CCN(C)CC2)cc1	-26.1
CCCN(CC(=O)Nc1ccc(F)c(F)c1F)C(=O)CCc1nc2ccccc2c(=O)[nH]1	-45.8
CCCCNC(=O)c1ccc(N2CCC3(CC2)OCCO3)c([N+](=O)[O-])c1	-22.2
O=c1[nH][nH]cc1C=Nc1ccc(Oc2ccccc2)cc1	11.6
COc1ccccc1CNC(=O)CCc1cn(C)c2ccccc12	-2.68
CC(C)C(=O)NC(C)C(c1cccs1)N1CCN(c2ccccc2)CC1 (stereo not drawn)	-29.9
CCCN(CC(=O)Nc1ccccc1C)C(=O)Cc1coc2cc(C)ccc12	-42.1
CCc1ccccc1NS(=O)(=O)c1cc(C)ccc1OC	-5.89
CC1(C)CC(=O)C(C(c2ccc(F)cc2)C2C(=O)CC(C)(C)CC2=O)C(=O)C1	6.64
CCN(CC(=O)NC(=O)NCc1ccco1)Cc1nc2ccccc2c(=O)[nH]1	-16.6
CC(C)(C)NC(=O)COc1ccc(CNc2ccc3[nH]c(=O)[nH]c3c2)cc1	-1.87
Cc1nc2c(o1)CCc1ccccc1C2N1CCN(C)CC1.O=C(O)/C=C/C(=O)O (stereo not drawn)	-5.58
COc1cccc(/C(O)=C2/C(=O)C(=O)N(CCN3CCOCC3)C2c2cccnc2)c1 (stereo not drawn)	7.31
